# Test results reported in the supplement of paper PMC8728848.
# This is one part of the list.
# B1: ClecSol-Fc (Cryptosporidium parvum) (protein)
# chain: CPEGWISNGEKTRCFKLVTFDRPRTFSHGFKACNDLGGTEVETRRRNGSKETNEYPVTLASVYKLSDEEAIRRTLVEQGDIHKTANGCFVGLRKYAFFRYPPGWYWIDSGSPVSVRDSEINWTSSYNASWLLRFKFPFEKCGFFDIGGLGRRPCWLIDSELSCAVCGTVAYDSGGLNPNKYSELIKQTDEIISKEPKLDLPGYNNLNCTDAWENNLSVGLCQNVSNILDSAWSSYQSSLNFPSINFNWKEDSTNEGGDQVYHNSYLDLPRYKQKKTFYWDQDPGTIPALSDEMKLIGLSAQPTYHPLDRSSSGSFESDSTESGRANEERNDTLEEMIYKQSSDSIEDILVPVTKPIFSDYSSIGRNSGVEEVYSSNVSTISSKGVVFPNTTTSSDNDFTKNNPANSSKHTSTSTTTNTTTTTTRTTTTTTTTTTTTTTTTTTTTETTTTKKSTTATKNTTTT
# Columns and labels:
# Assay in all cases: glycan array binding signal (z-score within array); higher = stronger binding
# Settings in all cases: glycan notation: IUPAC condensed, linker removed
# [1] = biological target: Neu5Ac(a2-3)Gal(b1-4)GlcNAc(b1-3)Gal(b1-4)GlcNAc(b1-3)Gal(b1-4)GlcNAc
# In short: (§1)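 Negative Z-scores can be read as non-binding. The Z-score is calculated within each array and then averaged across arrays of one protein sequence at different concentrations or buffers and across linkers. Arrays, 3228 in all, were curated from the Consortium for Functional Glycomics database and kept only where the protein sequence was available.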
# [2] = biological target: Neu5Ac(a2-3)Gal(b1-4)GlcNAc(b1-3)Gal(b1-4)GlcNAc(b1-3)Gal(b1-4)GlcNAc(b1-2)Man(a1-3)[Neu5Ac(a2-3)Gal(b1-4)GlcNAc(b1-3)Gal(b1-4)GlcNAc(b1-3)Gal(b1-4)GlcNAc(b1-2)Man(a1-6)]GalNAc
# In short: as §1
# [3] = biological target: Neu5Ac(a2-3)Gal(b1-4)GlcNAc(b1-3)Gal(b1-4)GlcNAc(b1-3)GalNAc
# In short: as §1
# [4] = biological target: Neu5Ac(a2-3)Gal(b1-4)GlcNAc(b1-3)Gal(b1-4)GlcNAc(b1-3)[Neu5Ac(a2-3)Gal(b1-4)GlcNAc(b1-3)Gal(b1-4)GlcNAc(b1-6)]GalNAc
# In short: as §1
# [5] = biological target: Neu5Ac(a2-3)Gal(b1-4)GlcNAc(b1-3)Gal(b1-4)GlcNAc(b1-6)[Gal(b1-3)]GalNAc
# In short: as §1
# [6] = biological target: Neu5Ac(a2-3)Gal(b1-4)GlcNAc(b1-3)Gal(b1-4)[Fuc(a1-3)]GlcNAc
# In short: as §1
# [7] = biological target: Neu5Ac(a2-3)Gal(b1-4)GlcNAc(b1-3)GalNAc
# In short: as §1
# [8] = biological target: Neu5Ac(a2-3)Gal(b1-4)GlcNAc(b1-3)[Neu5Ac(a2-3)Gal(b1-4)GlcNAc(b1-6)]GalNAc
# In short: as §1
# [9] = biological target: Neu5Ac(a2-3)Gal(b1-4)GlcNAc(b1-6)GalNAc
# In short: as §1
# [10] = biological target: Neu5Ac(a2-3)Gal(b1-4)GlcNAc(b1-6)[Gal(b1-3)]GalNAc
# In short: as §1
# [11] = biological target: Neu5Ac(a2-3)Gal(b1-4)GlcNAc(b1-6)[Neu5Ac(a2-3)Gal(b1-3)]GalNAc
# In short: as §1
# [12] = biological target: Neu5Ac(a2-3)Gal(b1-4)GlcNAc6S
# In short: as §1
# [13] = biological target: Neu5Ac(a2-3)Gal(b1-4)[Fuc(a1-3)]GlcNAc
# In short: as §1
# [14] = biological target: Neu5Ac(a2-3)Gal(b1-4)[Fuc(a1-3)]GlcNAc(b1-2)Man
# In short: as §1
# [15] = biological target: Neu5Ac(a2-3)Gal(b1-4)[Fuc(a1-3)]GlcNAc(b1-3)Gal
# In short: as §1
# [16] = biological target: Neu5Ac(a2-3)Gal(b1-4)[Fuc(a1-3)]GlcNAc(b1-3)Gal(b1-4)GlcNAc
# In short: as §1
# [17] = biological target: Neu5Ac(a2-3)Gal(b1-4)[Fuc(a1-3)]GlcNAc(b1-3)Gal(b1-4)[Fuc(a1-3)]GlcNAc(b1-3)Gal(b1-4)[Fuc(a1-3)]GlcNAc
# In short: as §1
# [18] = biological target: Neu5Ac(a2-3)Gal(b1-4)[Fuc(a1-3)]GlcNAc(b1-3)GalNAc
# In short: as §1
# [19] = biological target: Neu5Ac(a2-3)Gal(b1-4)[Fuc(a1-3)]GlcNAc(b1-6)[Gal(b1-3)]GalNAc
# In short: as §1
# [20] = biological target: Neu5Ac(a2-3)Gal(b1-4)[Fuc(a1-3)]GlcNAc(b1-6)[Neu5Ac(a2-3)Gal(b1-3)]GalNAc
# In short: as §1
# [21] = biological target: Neu5Ac(a2-3)Gal(b1-4)[Fuc(a1-3)]GlcNAc6S
# In short: as §1
# [22] = biological target: Neu5Ac(a2-3)Gal6S(b1-4)GlcNAc
# In short: as §1
# [23] = biological target: Neu5Ac(a2-3)Gal6S(b1-4)[Fuc(a1-3)]GlcNAc
# In short: as §1
# Neu5Ac(a2-3)GalNAc = biological target: Neu5Ac(a2-3)GalNAc
# In short: as §1
# [24] = biological target: Neu5Ac(a2-3)GalNAc(b1-4)GlcNAc
# In short: as §1
# [25] = biological target: Neu5Ac(a2-3)[GalNAc(b1-4)]Gal(b1-4)Glc
# In short: as §1
# [26] = biological target: Neu5Ac(a2-3)[GalNAc(b1-4)]Gal(b1-4)GlcNAc
# In short: as §1
# [27] = biological target: Neu5Ac(a2-3)[GalNAc(b1-4)]Gal(b1-4)GlcNAc(b1-3)GalNAc
# In short: as §1
# [28] = biological target: Neu5Ac(a2-3)[Neu5Ac(a2-6)]GalNAc
# In short: as §1
# Neu5Ac(a2-6)Gal = biological target: Neu5Ac(a2-6)Gal
# In short: as §1
# [29] = biological target: Neu5Ac(a2-6)Gal(b1-3)GlcNAc(b1-3)[Gal(b1-4)GlcNAc(b1-6)]Gal(b1-4)Glc
# In short: as §1
# Neu5Ac(a2-6)Gal(b1-4)Glc = biological target: Neu5Ac(a2-6)Gal(b1-4)Glc
# In short: as §1
# [30] = biological target: Neu5Ac(a2-6)Gal(b1-4)GlcNAc
# In short: as §1
# [31] = biological target: Neu5Ac(a2-6)Gal(b1-4)GlcNAc(b1-2)Man
# In short: as §1
# [32] = biological target: Neu5Ac(a2-6)Gal(b1-4)GlcNAc(b1-2)Man(a1-3)Man(b1-4)GlcNAc(b1-4)GlcNAc
# In short: as §1
# [33] = biological target: Neu5Ac(a2-6)Gal(b1-4)GlcNAc(b1-2)Man(a1-3)[Gal(b1-4)GlcNAc(b1-2)Man(a1-6)]Man(b1-4)GlcNAc(b1-4)GlcNAc
# In short: as §1
# [34] = biological target: Neu5Ac(a2-6)Gal(b1-4)GlcNAc(b1-2)Man(a1-3)[GlcNAc(b1-4)][Neu5Ac(a2-6)Gal(b1-4)GlcNAc(b1-2)Man(a1-6)]Man(b1-4)GlcNAc(b1-4)GlcNAc
# In short: as §1
# [35] = biological target: Neu5Ac(a2-6)Gal(b1-4)GlcNAc(b1-2)Man(a1-3)[Man(a1-6)]Man(b1-4)GlcNAc(b1-4)GlcNAc
# In short: as §1
binder,measurement,setting,value
B1,glycan array binding signal (z-score),[1],-0.115
same,glycan array binding signal (z-score),[2],0.188
same,glycan array binding signal (z-score),[3],-0.205
same,glycan array binding signal (z-score),[4],-0.112
same,glycan array binding signal (z-score),[5],0.011
same,glycan array binding signal (z-score),[6],-0.012
same,glycan array binding signal (z-score),[7],-0.229
same,glycan array binding signal (z-score),[8],-0.157
same,glycan array binding signal (z-score),[9],-0.11
same,glycan array binding signal (z-score),[10],0.389
same,glycan array binding signal (z-score),[11],-0.19
same,glycan array binding signal (z-score),[12],-0.086
same,glycan array binding signal (z-score),[13],-0.268
same,glycan array binding signal (z-score),[14],0.049
same,glycan array binding signal (z-score),[15],-0.271
same,glycan array binding signal (z-score),[16],-0.177
same,glycan array binding signal (z-score),[17],-0.027
same,glycan array binding signal (z-score),[18],-0.101
same,glycan array binding signal (z-score),[19],-0.215
same,glycan array binding signal (z-score),[20],-0.001
same,glycan array binding signal (z-score),[21],0.031
same,glycan array binding signal (z-score),[22],-0.086
same,glycan array binding signal (z-score),[23],-0.22
same,glycan array binding signal (z-score),Neu5Ac(a2-3)GalNAc,0.005
same,glycan array binding signal (z-score),[24],-0.194
same,glycan array binding signal (z-score),[25],-0.247
same,glycan array binding signal (z-score),[26],-0.146
same,glycan array binding signal (z-score),[27],-0.253
same,glycan array binding signal (z-score),[28],0.394
same,glycan array binding signal (z-score),Neu5Ac(a2-6)Gal,-0.025
same,glycan array binding signal (z-score),[29],0.015
same,glycan array binding signal (z-score),Neu5Ac(a2-6)Gal(b1-4)Glc,0.133
same,glycan array binding signal (z-score),[30],-0.082
same,glycan array binding signal (z-score),[31],-0.014
same,glycan array binding signal (z-score),[32],-0.187
same,glycan array binding signal (z-score),[33],-0.229
same,glycan array binding signal (z-score),[34],-0.193
same,glycan array binding signal (z-score),[35],0.095
